Consider eleven compounds from PubChem BioAssay AID290 (DTP/NCI, 2004).

This assay has as its system mice, P1798 lymphosarcoma sc, survival or tumor weight T/C. Put plainly: NCI In Vivo Anticancer Drug Screen. Data for tumor model P1798 Lymphosarcoma (subcutaneous) in unknown mice. The following applies: endpoint: mean tumor weight, higher = larger tumour. How it is done:
The antitumor activity of compounds was measured in mice bearing transplantable tumors. Survival or tumor size were measured and the results are expressed as the measurement made in the treated group (T) divided by the measurement made in the vehicle treated control group (C). The tumor model used in this assay is P1798 Lymphosarcoma (subcutaneous) in unknown mice

Results filed as inconclusive are left out. Some entries of the source have several records that differ or are many. This list holds those alone. An entry can have further records. The records of an entry are repeats (runs, samples, wells, individuals or studies). *1 amine or outer side, *2 acyl side, *3 side chain or, on linkers, in order; H or OH if unused. Where a SMILES comes first, the peptide text is derived from it. Bridges are numbered along the chain shown (N, C = ends). Roman numbers before positions name the chains, in order. [ ]: non-standard residue; d: D form. Actinocin(9to1) = Cc1c2oc3c(C)ccc(C(=O)[*:1])c3nc-2c(C(=O)[*:2])c(N)c1=O; aThr = C[C@H](O)[C@H](N)C(=O)O; NMeV = CN[C@H](C(=O)O)C(C)C; Sar = CNCC(=O)O

As for `O=P1(N(CCCl)CCCl)NCCCO1` (stereo unspecified), where the note is “dose: 6.25 mg/kg/injection, schedule: Q01DX010 (ip), vehicle: saline”, the T/C was 84 % of control and 112 % of control. For the compound `CCOC(N)=O`, the T/C (dose: 500.0 mg/kg/injection, schedule: Q01DX010 (ip), vehicle: saline) is 48 % of control and 74 % of control. With `Cc1c2oc3c(C)ccc(C(=O)N[C@@H]4C(=O)N[C@H](C(C)C)C(=O)N5CCC[C@H]5C(=O)N(C)CC(=O)N(C)[C@@H](C(C)C)C(=O)O[C@H]4C)c3nc-2c(C(=O)N[C@@H]2C(=O)N[C@H](C(C)C)C(=O)N3CCC[C@H]3C(=O)N(C)CC(=O)N(C)[C@@H](C(C)C)C(=O)O[C@H]2C)c(N)c1=O` (I: [aThr][dV]P[Sar][NMeV] / II: [aThr][dV]P[Sar][NMeV]; ester I:1-I:C, II:1-II:C; linker I:N-II:N via Actinocin(9to1)), under “dose: 10.0 micrograms/kg/injection, schedule: Q01DX010 (ip), vehicle: saline”, the T/C was 44 % of control and 123 % of control. Regarding `O=c1[nH]cc(F)c(=O)[nH]1`, the T/C (dose: 10.0 mg/kg/injection, schedule: Q01DX010 (ip), vehicle: saline) is 52 % of control and 95 % of control. For `Nc1nc2n[nH]nc2c(=O)[nH]1`, the T/C (dose: 25.0 mg/kg/injection, schedule: Q01DX010 (ip), vehicle: other) is 75 % of control and 164 % of control; the T/C (dose: 100.0 mg/kg/injection, schedule: Q01DX010 (ip), vehicle: other) is recorded as 19 % of control, 72 % of control, 86 % of control. As to `CC[C@]1(O)C[C@H]2CN(CCc3c([nH]c4ccccc34)[C@@](C(=O)OC)(c3cc4c(cc3OC)N(C=O)[C@H]3[C@@](O)(C(=O)OC)[C@H](OC(C)=O)[C@]5(CC)C=CCN6CC[C@]43[C@@H]65)C2)C1`, the T/C (dose: 62.0 micrograms/kg/injection, schedule: Q01DX010 (ip), vehicle: water) is 44 % of control and 92 % of control. For the compound `C[C@]12CCC(=O)C=C1CC[C@@H]1[C@@H]2C(=O)C[C@@]2(C)[C@H]1CC[C@]2(O)C(=O)CO`, the T/C runs as follows: (dose: 25.0 mg/kg/injection, schedule: Q01DX010 (sc), vehicle: steriod suspending solution) 42 % of control and 78 % of control; (dose: 50.0 mg/kg/injection, schedule: Q01DX010 (sc), vehicle: steriod suspending solution) 11 % of control and 69 % of control.

In the case of `S=c1nc[nH]c2nc[nH]c12`, the T/C (dose: 18.3 mg/kg/injection, schedule: Q01DX010 (ip), vehicle: other) is listed as 35 % of control, 61 % of control, 87 % of control. Regarding `O=C(Nc1ccc(C2=NCCN2)cc1)c1ccc(C(=O)Nc2ccc(C3=NCCN3)cc2)c(Cl)c1`, the T/C is, setting by setting: (dose: 3.5 mg/kg/injection, schedule: Q01DX011 (ip), vehicle: carboxymethylcellulose (CMC)) 55 % of control, 71 % of control, 108 % of control; (dose: 7.0 mg/kg/injection, schedule: Q01DX011 (ip), vehicle: carboxymethylcellulose (CMC)) 53 % of control, 63 % of control, 82 % of control. As to `C[C@]12C=CC(=O)C=C1CC[C@@H]1[C@@H]2C(=O)C[C@@]2(C)[C@H]1CC[C@]2(O)C(=O)CO`, the T/C (dose: 40.0 mg/kg/injection, schedule: Q01DX010 (sc), vehicle: steriod suspending solution) was 21 % of control and 49 % of control. As for `Oc1cc(CN(CCCl)CCCl)c(O)cc1CN(CCCl)CCCl`, the T/C reads like this: (dose: 1.88 mg/kg/injection, schedule: Q01DX010 (sc), vehicle: steriod suspending solution) 82 % of control and 124 % of control; (dose: 3.75 mg/kg/injection, schedule: Q01DX010 (sc), vehicle: steriod suspending solution) 50 % of control and 83 % of control; (dose: 7.5 mg/kg/injection, schedule: Q01DX010 (sc), vehicle: steriod suspending solution) 14 % of control and 48 % of control.
